Source: paper PMC12136788
The list shows a part of the results.

T1: UNK ZnF1-3 (human, UniProt Q9C0B0 31-174)
T1 sequence: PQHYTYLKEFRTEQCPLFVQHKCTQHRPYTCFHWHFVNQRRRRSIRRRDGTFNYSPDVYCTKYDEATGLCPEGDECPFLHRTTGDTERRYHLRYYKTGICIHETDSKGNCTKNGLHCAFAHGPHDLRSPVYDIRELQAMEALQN

B1: chr1:112309342:112309343:+_ENSG00000064703_ENST00000369702|hu_hu|motif|central (ssRNA)
RNA: GGGAGUUCUACAGUCCGACGAUCUCUCCAGUACUCCUCAUAAUCCUGAUAGGUAUCAGAAAAACUCAGACGUAUUUCCCGGUGACAGUCAUACCAAUCAUCUUCCUGGGCUUCAGUCUGCAAUCUGAAGGAAGACCGCCUGGGCAACAGAGGAUUGAGCAUCA
B2: 38431194_38431314_596_CDS_ENSMUSG00000037458_ENSMUST00000065308|mouse|control|control (ssRNA)
RNA: GGGAGUUCUACAGUCCGACGAUCUCCAAGGUUUGUUCCUUCAUCCAACAGGCCAACGGAGUAGUUCGCAUCGUCAAUAAAUCCUUUCAUCUCAGCCGUAUUCCACAAAGCCGAAAGUCAUAAACCAGGAAAAACAAGAGACGGCAACAGAGGAUUGAGCAUCA
B3: 38884973_38885093_2851_3pUTR_ENSG00000157540_ENST00000338785|human|control|control (ssRNA)
RNA: GGGAGUUCUACAGUCCGACGAUCGAUGUGGCAAGUUAAAAUGGGGGAGCAAAAAGAGGAUACCUCUGAGCUAUCCAUGAAGAUGGGUUUGGACAUGGCUCUUUUAAACACUUCAAUGUCCCUUUGCAAUCUUUUCAAGUUAAACAACAGAGGAUUGAGCAUCA
B4: 70736725_70739375_2123_CDS_ENSMUSG00000020817_ENSMUST00000076270|mouse|control|control (ssRNA)
RNA: GGGAGUUCUACAGUCCGACGAUCUAAUGACACAUGCAAGCUGUGCUUCCCCUGGAGGCUGUCGUUGUCUUUCUGUAACCUCACCAACUCUUCUGAAACCUGUUCACGUGACUGCAUCAGCACCGCCAUCUGCUCCUGAACGUCCAACAGAGGAUUGAGCAUCA
B5: 34074026_34074146_308_3pUTR_ENSG00000135387_ENST00000341394|human|control|control (ssRNA)
RNA: GGGAGUUCUACAGUCCGACGAUCACCCCGAGAAUCUGCUUCAUGGCCUCGGUCUGGACAGCGCCGGUGCCGGUUGCGGGGUGCUGAGAAGCCGGCGCGGCGGCCCCGGCUCCCGCGGCCGCCUCACUCCCGGAGGAACCCGACCAACAGAGGAUUGAGCAUCA
B6: 115657009_115659798_1181_3pUTR_ENSMUSG00000054414_ENSMUST00000067485|mouse|control|control (ssRNA)
RNA: GGGAGUUCUACAGUCCGACGAUCGCGUCAGCAUCAGGGGCUACCACGAGCUUCAAGGUUCCCACGUAAACAUCAGAACAGAGUGUCCAGAAGUGCUGUUCUUGCAAGUUGUAAACUCCUUGUAACUGUUGCACCCUCUGAUAGCAACAGAGGAUUGAGCAUCA
B7: chr1:46159212:46159213:+_ENSG00000159596_ENST00000372025|hu_mus|hu_hu_hu_mus_True|88_88 (ssRNA)
RNA: GGGAGUUCUACAGUCCGACGAUCUCUGAUCCCUCCCAAGAAAGCUAGGAAACUGGCUCCAUAAGCCAUCUGAGUGAAAGCUAGGACGGGGAUAUAAGACUUUGUUAUUACCAUGAGAAGUGGGGGAGCAGUAAAGGGGAUUAACAACAGAGGAUUGAGCAUCA
B8: chr1:39494447:39494448:+_ENSG00000168653_ENST00000372967|hu_mus|hu_hu_hu_mus_False|18_48 (ssRNA)
RNA: GGGAGUUCUACAGUCCGACGAUCGCACCGAGCGGCGUUCUUAUAGGGCUGUUCUGCGCUUAGGAACAUAAAGUGCCGGUCCAGGCUAAGGCCGAACUUUUUCUGUAUGUCAAGGAAAGGCAUGGCCCUGCAGUGCCCUUGUCACAACAGAGGAUUGAGCAUCA
B9: chr11:75113396:75113397:+_ENSG00000149273_ENST00000524851|hu_hu|FALSE|FALSE (ssRNA)
RNA: GGGAGUUCUACAGUCCGACGAUCCCCUCCUAGGAGUUUGUAACGCAGAGACUCUGCCUGGGCAAUGGCACACAGACCUCUAGUGGCCACCUUUUCAGCAUAAAGCUCUACACUGCCCUCUGGAAAGCCAAACCUCUUCUGAACCAACAGAGGAUUGAGCAUCA
B10: chr1:58468927:58468928:-_ENSMUSG00000026034_ENSMUST00000148330|mus_mus|mus_mus_mus_hu_False|58_58 (ssRNA)
RNA: GGGAGUUCUACAGUCCGACGAUCAAUUACUGAAAAAGAUGUUCAUUACCUUAGCUAUGUACUUAAUGAACCAAAUUAUCUAAAAAAAAUAAACAUGGCAAUAUAAAAAUGUUAAGAAUUUACAAAGCUGUACAAAAUAACUUACAACAGAGGAUUGAGCAUCA
B11: chr1:220276048:220276049:+_ENSG00000067704_ENST00000302637|hu_hu|hu_hu_hu_mus_True|8_88 (ssRNA)
RNA: GGGAGUUCUACAGUCCGACGAUCGCAAAUUGCCUGGUUGGCGGGAAUCGUCCAAGGCUGGGUGGUCCAAACUAAAACGCUAACAGGGGAUGAGGCAUCUGUAAGAGACUCCAACUUCGGAGGAGGUUUUAAGAGAGGGAAUCUCAACAGAGGAUUGAGCAUCA
B12: 123900948_123903029_810_CDS_ENSG00000119397_ENST00000373850|human|control|control (ssRNA)
RNA: GGGAGUUCUACAGUCCGACGAUCUAGCUCAUCCACACGAGCUGCCACUUCUUCUGGACGAACCAAACCAUCAACCACAUGGUUAAGGUGAUUCUGGAAAUCUUUAAGUUGCUGUUUUAACAGAUUAUUGUCAUCCUGCAAGUGCAACAGAGGAUUGAGCAUCA
B13: chr5:171327072:171327073:-_ENSG00000072803_ENST00000265094|hu_mus|FALSE|FALSE (ssRNA)
RNA: GGGAGUUCUACAGUCCGACGAUCCACCAGCUCUGCUGCACACAGAGACCUGGCAUCCAGGUAGGAGAGAAUGUUUUCUGCUAUGUGAUCUAAGCCUUGCUCUGGUAAAGCAGUGAUAAAGUCCCGCUGCAACAUGGGCUUCAGCAACAGAGGAUUGAGCAUCA
B14: chr11:13408652:13408653:+_ENSG00000133794_ENST00000403290|hu_hu|motif|central (ssRNA)
RNA: GGGAGUUCUACAGUCCGACGAUCGACUUCUUUGUAGUGUAAAAACACCAUACAUCUGAAAUGACCAUUUGCAUAUAAAAGCGGCCAAUGAUGCUUCUGUGCACAAUGAUUAAAAAAUUCAACACAAACAGAAUCCAAAAUAUACAACAGAGGAUUGAGCAUCA
B15: chr4:48381769:48381770:+_ENSG00000109171_ENST00000512093|hu_mus|motif|central (ssRNA)
RNA: GGGAGUUCUACAGUCCGACGAUCCUUAUAGUUGGAUCCAAUUGAAUCUUCAUCUAAUUCUGAAGCACUUAACUCACGGUCGGUAGAGGACUGAGGGCUGAGUGGAGGGUUUCUAUCUGAUGAACUUUUGAAGUUACCUGAAUUCAACAGAGGAUUGAGCAUCA
B16: chr11:118370577:118370578:+_ENSG00000118058_ENST00000534358|hu_hu|motif|central (ssRNA)
RNA: GGGAGUUCUACAGUCCGACGAUCCUGAUAUCCAAUAGGAAAGAGCUUAUCUUCACAGUCGGAGAGAUCAUUUAGAAUUCCGGAGCAGUCGAUUGUCAUAGACCCAAUCAUCAUGUGGAUAUUUUCUGGUUCCAAGCCAUUGAGCAACAGAGGAUUGAGCAUCA
B17: chr11:30433043:30433044:-_ENSG00000066382_ENST00000358117|hu_mus|FALSE|FALSE (ssRNA)
RNA: GGGAGUUCUACAGUCCGACGAUCUCACAUUCCAACGGGAUGCUGAGUGCUUUAGGAGCCCUGUGGGUUUGGAAGGUCAAAUAUGAUUGGAGGGUUGGUCGGUUGAAAGCUGACUGUACAGGUUGAGGCAUUGAUGUAGGUGGUCAACAGAGGAUUGAGCAUCA
B18: chr2:78753848:78753849:+_ENSMUSG00000027011_ENSMUST00000028398|mus_hu|FALSE|FALSE (ssRNA)
RNA: GGGAGUUCUACAGUCCGACGAUCGUUAUCUCCUUUAGGCCCAGCACUGCAAUUAGGAGGAGGAUCAAGGGUUAUUUCAGCUAGCUCCUUCUGAAUUCUUUUAGCACUAGUGGAUAACUUAGCAGUGGUUUUGCUAGAGAGUUUCAACAGAGGAUUGAGCAUCA
B19: chr8:124405102:124405103:-_ENSMUSG00000040010_ENSMUST00000045557|mus_hu|FALSE|FALSE (ssRNA)
RNA: GGGAGUUCUACAGUCCGACGAUCUUUCUUUAAAAAUAAAAACCCCACAAAAAAGCCAGAACACCCUACCCAACCCAGCCCAGUGUAACAGGUUAGCCAUUAACACAGAAUAAAGAAGGUCCCAGCCACACACGUCAUUACUCGCAACAGAGGAUUGAGCAUCA
B20: 34498214_34498334_89_5pUTR_ENSMUSG00000028291_ENSMUST00000084299|mouse|control|control (ssRNA)
RNA: GGGAGUUCUACAGUCCGACGAUCUCGAAAUCCAGAGUCCUUUUCAGAGUGGCUCCGCACGCCAUGGUGGCGGGCGGCCGAGGCUCGGCUCGGGCGGGGCCGGGAAGGACGGGGGCAAACGGGCCCUCCGAGGUGCCCGGUGGGCAACAGAGGAUUGAGCAUCA
B21: chr9:96246283:96246284:-_ENSMUSG00000032412_ENSMUST00000034983|mus_mus|FALSE|FALSE (ssRNA)
RNA: GGGAGUUCUACAGUCCGACGAUCCUGGAGCAUGGCCCACAUUGUGAAUGUGAAGAGUGCAGCCAAGAACCCAUAAAAAACUAGGUAGAAGAGCAAGAUCAGACCCCAGCUCUUGGAGGUGCGCCCCAGAAACUCUCCGCUGCUCAACAGAGGAUUGAGCAUCA
B22: chr10:5892124:5892125:-_ENSMUSG00000061759_ENSMUST00000095893|mus_mus|FALSE|FALSE (ssRNA)
RNA: GGGAGUUCUACAGUCCGACGAUCUUCAUUAAAACUACUUGAAAGUUUUGCAUUUAACUUAGAAUAGUGACAGAAGUAUAACUAGCUUAAACCCAAACCAAUGCAGCGGGGCAAACCAUUCCAAGGAAGCCUCGUCUACUGUACCAACAGAGGAUUGAGCAUCA

molecular target: T1, UNK ZnF1-3; test: nsRBNS (natural sequence RNA bind-n-seq); RBNS binding buffer (assumed for nsRBNS): 25 mM Tris pH 7.5, 150 mM KCl, 3 mM MgCl2, 0.01% Triton X-100, 500 ug/ml BSA, 20 U/ml SUPERase-In, 4 C; UNK is unkempt and MSI1 is Musashi-1; names of the RNAs are library labels; protein concentration not given here; high values mean tight binding

Point of comparison: B12, binding signal 0.671 enrichment R. Against it:
- B1 — higher, 0.826 enrichment R
- B2 — higher, 1.46 enrichment R
- B3 — higher, 1.74 enrichment R
- B4 — higher, 0.793 enrichment R
- B5 — higher, 1.16 enrichment R
- B6 — higher, 0.941 enrichment R
- B7 — higher, 1.7 enrichment R
- B8 — higher, 0.748 enrichment R
- B9 — higher, 0.969 enrichment R
- B10 — higher, 1.83 enrichment R
- B11 — higher, 2.3 enrichment R
- B13 — higher, 1.12 enrichment R
- B14 — higher, 0.771 enrichment R
- B15 — higher, 0.921 enrichment R
- B16 — higher, 1.96 enrichment R
- B17 — higher, 1.43 enrichment R
- B18 — higher, 0.926 enrichment R
- B19 — higher, 1.41 enrichment R
- B20 — higher, 0.847 enrichment R
- B21 — higher, 1.97 enrichment R
- B22 — higher, 0.789 enrichment R
